Source: publication PMC8729885, “β-Amyloid Clustering around ASC Fibrils Boosts Its Toxicity in Microglia” (Cell reports, 2020)

Target: T1, Amyloid β-Protein (1-42) (HFIP-treated) (UniProt P05067 partial chain)
T1 construct: amyloid β peptide 1-42, cut product of the amyloid precursor protein (APP); numbers count on: the Aβ peptide; In the phagocytosis and degradation assays a FAM-labelled Aβ1-42 (Peptide Specialty Laboratories, ID# CEM112812FL) was used instead; also called Aβ; Aβ1-42; source: bought: Bachem AG (HFIP-treated), dissolved in DPBS; also in lysate of ASC-deficient mouse microglia that had been treated …
Assay: co-IP; cell-free: 1.75 μM ASC and 5 μM Aβ pre-incubated in serum-free medium O/N, then 1 h at RT with Protein G magnetic beads carrying anti-ASC (AL177) or anti-Aβ (82E1) in PBST; immunoblot for ASC and Aβ
Details: both partners purified

B1: Full-length human ASC (apoptosis-associated speck-like protein containing a CARD), followed by a TEV protease cleavage site, mCherry and a C-terminal … (natural protein)
chain: [about 100 residues left out]AAKPGLHFIDQHRAALIARVTNVEWLLDALYGKVLTDEQYQAVRAEPTNPSKMRKLFSFTPAWNWTCKDLLLQALRESQSYLVEDLERS
notes: ASC (apoptosis-associated speck-like protein containing a CARD), human, full length; N-terminal PYD and C-terminal CARD; A TEV protease site lies between ASC and mCherry; Blots of treated cells show ASC-mCherry, ASC dimers and ASC monomers, so part of the protein may have lost mCherry; also called recombinant ASC; WT ASC; source: E. coli BL21(DE3), purified (pellet dissolved in 2 M Gdn-HCl, …)
Q: Does B1 bind?
A: binds
